This passage reports self-cleavage results from the RNAGym collection of RNA variant scans (doi:10.7554/elife.90254).

Sequences and labels used below:
B1: LINE1-mini (parent)
chain: GGCAGAGCUCAACACAGCGUGGCAAAGUGGCUGUGGCUAGACUGCC

Read counts are not given, so values of variants with three or more changes are uncertain.

The variants in this series derive from B1. In words: self-cleavage, relative activity (ratio to wild type); higher = more cleavage; in vitro, sequencing; the parent is a self-cleaving ribozyme.
GGCACAGAGCAAAACAGCGUGGCAAUGUGGCUGUGGCUAGACUGCU: the self-cleavage turned out to be 0.21.
Then GGCAAAGCUCAACACAGUGUGUCAAAGUGGCUGUGGCUAGCAUGCC, with 0.07.
As for GGCAGAGCUAAACACAGCGUGGCAAAGUGGCUGUGGCAAUACUGCC, the figure is 0.01; as for GGCAGAGCUCAACACAGUGUGGCAAAGUCGCUGGGGAUAGAUAUGC, 0.01.
GGCAGUGCUCAACAUGGCGUGGCAAAGUGGCUGUGGCUAGACUGCC: the self-cleavage was 0.73.
As for GGCAGAGCUCAACCCAGCGUGGCAAAGUUGUUGUGGCUAGACUGCC, the figure is 0.21; as for GGCAUAGCUCAACACAGCGUGGCAAAGAGGCUGUGGCUAGACUCCC, 0.02; as for AGCAGAGCUCAACACAGCGUGGCACAGUGGCUCUGGUUAGACUGCC, 0.04.
Then GGCAGAGCUCAACAAAGCGUGGCAAAGUGGCUGGGGCAUGACUGCC, with 0.05; and GGCAGAGCUCAACACAGCUUGGCAAUUUGGCUGUGUCUAGACUGCG, with 0.04; and GGCAGAGUUCAACCCAGCGAGACAAAGUGGCUGUGGCUAGACUGCC, with 0.06.
Consider GACAGAGCUCAACACAGCGUGGCAAAGUCGCUGGGGCUAGACUGCC, for which the self-cleavage is 0.08.
As for GGCAGAGCUCAAUACAGCGUGGCAAGGUGGCUGCGGCUAGACUGCC, the figure is 0.02.
As for GGCAGAGCUCAACACAGCGUGGGAAAGUGGAUGUGGCUAGAAUGCC, the figure is 0.03; as for GCAAGAGCACAACACAGCGUGGCAAAGUUUCUGUGGCUAGACUGCC, 0.21.
As for GGCAGAGCUCAACACAGCGUGGCAAAGUGGCUGUGGCUAGUAAGCC, the figure is 0.03; as for GGCAGAGCUCAACAAAGCGUGGCAAAGUGGCCGUGGCUGGACUGCC, 0.06.
Turning to GGCAGAGCUCACCACAGAGUGGCAAAGUGGCUGUGGCCAGAGUGCC, the self-cleavage was found to be 0.04.
In the case of GGCAGAUCUAAACACAGCGUGGCAAAGUUGCUGUGGCUAGACUGCC, the self-cleavage turned out to be 0.05.
As for GGCAGAGCUCAAGACAACGUGGCAAUGUGGCGGUGGCUAGACUGCC, the figure is 0.02.
As for GGCAGACCUCAACACAGCGUGACAAAGUGGUUGUGGCUAGACUGCC, the figure is 0.09; as for GGCAGAGCUCAAUACAGCGUGGCAAAGUGGCUGUGGCCAGCCUGCC, 0.03.
Turning to GGAAGACCUCAAAACAGCGUGGCAAAGUGGCUGUGGCUGGACAUCC, the self-cleavage was found to be 0.26.
As for GGCAUAGCUCAACACAGCGUGGCAAAGUUGCUGUUGCUAGACUGCC, the self-cleavage stood at 0.05.
Take GGCAGCGCUCAACACAGCGUGGCGAAUCGGCUGUGUCUAGACUGCC: the self-cleavage is 0.06.
Then GGAAGAGAUCAACACAGCGUGGCAAGGUGGCGGUGGCUGGACUGCC, with 0.36; and AGCAGAGCUCAACACCGCGUAGCAAAGUGGCUGUGGCUAGCCUGCC, with 0.04.
Consider GGCAGAGCUCAACACAGCGUGGCAAAGUGUCGGUGGCUAGACUUCC, for which the self-cleavage stood at 0.22.
As for GUCAGAGCUCAAGACAGCGUGGCAAAGUGGCUUUGUCUAGACUGGC, the figure is 0.01.
Then AGCAGAGCUCAACACAGCGUGGCAAAGUGGCUGCGGCUAGACUCGC, with 0.03; and GGCAGAGAUCAACACCGCGCGGCAAAGUGGCCGUGGCUAGACUGCC, with 0.09.
As to GGCAGAGCGCAACACAUCGUGGCAAAGUGGCUGUGGCUAGACUGAC, the self-cleavage stood at 0.01.
As for GGCAGAGCUCAACACACCGUGGCAAAAUGUCUGUGGCUAGACUGCC, the figure is 0.49.
As for GGCAGUGCUCAACACAGCGUGCCAAAAUGGCUGUGGCUAGACUGUC, the figure is 0.45; as for GGCAAAUCUAAACACUGCGUGAGAAAGUGGCUGUGGCUAGACUGCC, 0.02.
As for GGCAGAGCUCAAUACAGCGUGGCAAAGUGUCUGUGGCUAGACUCAC, the figure is 0.06; as for GGCAGAGCUCAACACAUCGUGGCAAAGUGGCUAUGGUUAGACUGCC, 0.04; as for GGCAGAGUUGAACACAGCGUGGCAAAGUGGCUGUGGCUAGACUGAC, 0.04.
With GGCAGUGCUCAACGCAGCGUGGCAAAGUGGCUGGGCCUAGACUACC, the self-cleavage came to 0.03.
Then GGCAGUGCUCAACACAGAAGGGCAAAGUGGCUGUGGCUAGUCUGCC, with 0.19; and GGCAGAGCUCAACACAGCGUGCCAAAGUGGCUGGGGCUAUACUGCC, with 0.08.
For GGUAGAGCUCAAGACAGCGUCGCAAAGUGGCUGUGGCAAGACUGCC, the self-cleavage came out at 0.06.
As for GGCAGAUCUCUACACAGCGUGGCAAAGUGGCUGUGGCUAGAGAGCC, the figure is 0.01; as for GGCAGAGCUCAACACCGCGUUGCAAGGUGGCUGUGGCUAGACUACC, 0.
Then GGCAGAGCUCAACACAGCGUGGCAAUGAGGCUGUGGCUAGACUGCA, with 0.69; and GGCAGAGCUCAACACAGCGUGACAAAGUGGCCGUGACUAGACCGCC, with 0.03.
As for GGCAGAGCUCAACACAGCGUGGCAAAGUGGCUCUGUAUAGGGUGCC, the figure is 0.03; as for GGCAGAGCUCAACACAACGUGGAAAAGUGGCUGUGGCUAGCCAGCC, 0.01.
With GGCUGUGCUCAACACAGCGUGGCAAAGUCGCUGUGGCUAUACUGCC, the self-cleavage was 0.12.
For GGCAGAGCUCAACACAGCGUGGCAAAGUUGUUGUGGCUGGACUGCC, the self-cleavage stood at 0.02.
As for GGCAGAGCUCAACUCAGCGUGGCAAAGUGGAUGUGGAUAGACUGCU, the figure is 0.01.
As for AGCAGAGCUAAUAACAGCGUGGCAAACUGGCUGUGGCUAGAGUGCC, the figure is 0.02; as for GGCAGAGCUCAACACAGCGUGGCAAAGUAUCUGUGGCUAGAUUGCC, 0.13; as for GGCCGAGCUCAACACAGCGUGGCAAAGUGGCUGUUGCUAGAGUACC, 0.01.
For GGCAGAGCUCAACACAGCGUGCCCAAGUGGCUGUGGCGAGACUGCC, the self-cleavage was found to be 0.02.
For GGCAGAGCGUAACACAGCGGGGCAACGUGGCUGUGGCUAGACUGCC, the self-cleavage stood at 0.02.
